{"source": "paper PMC6919601", "about": "“Identification of Plasmodium dipeptidyl aminopeptidase allosteric inhibitors by high throughput screening” (PLoS ONE, 2019)", "note": "Among all 110,000 compounds or so, about 230 (0.21%) showed an effect of 50% or more. Some of the results follow.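 Note: 30 min substrate incubation versus DMSO and 10 µM JCP410 controls.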", "data": [{"biological_target": "DPAP1 (Plasmodium falciparum, UniProt Q8IIJ9)", "sequence (Q8IIJ9 whole entry, looked up)": "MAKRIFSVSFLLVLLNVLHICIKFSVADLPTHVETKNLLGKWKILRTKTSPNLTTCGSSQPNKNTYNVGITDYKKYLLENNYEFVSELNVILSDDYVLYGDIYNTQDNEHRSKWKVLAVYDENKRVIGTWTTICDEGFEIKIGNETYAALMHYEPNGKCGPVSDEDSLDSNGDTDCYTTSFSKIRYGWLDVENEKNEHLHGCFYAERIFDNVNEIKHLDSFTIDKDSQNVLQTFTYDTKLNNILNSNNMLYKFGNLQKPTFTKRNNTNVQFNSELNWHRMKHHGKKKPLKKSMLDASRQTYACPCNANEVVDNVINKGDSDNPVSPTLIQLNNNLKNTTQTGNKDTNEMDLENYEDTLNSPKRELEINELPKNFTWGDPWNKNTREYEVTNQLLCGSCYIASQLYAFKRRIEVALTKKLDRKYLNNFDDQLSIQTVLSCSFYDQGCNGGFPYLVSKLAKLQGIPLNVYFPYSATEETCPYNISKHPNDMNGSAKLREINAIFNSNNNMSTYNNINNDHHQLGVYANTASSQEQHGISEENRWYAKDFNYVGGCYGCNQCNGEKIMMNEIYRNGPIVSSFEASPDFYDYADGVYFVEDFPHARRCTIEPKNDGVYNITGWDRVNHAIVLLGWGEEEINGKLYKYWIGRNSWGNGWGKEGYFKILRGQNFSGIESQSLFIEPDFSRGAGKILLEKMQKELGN", "assay": "primary screen, percent inhibition; read by cleavage of a fluorogenic dipeptide substrate; higher = more effect of the substance", "design": "species or system P. falciparum D10 trophozoite lysates; single well", "units": {"% Inhibition @ 10 uM": "%"}, "values": [{"compound": "O=C(NCc1nnc(S)n1-c1ccccc1)c1ccccc1F", "% Inhibition @ 10 uM": 4.95}, {"compound": "Cc1ccc(C2CC(=O)NC(SCC(=O)Nc3ccccc3C)=C2C#N)cc1", "note": "(stereo not shown)", "% Inhibition @ 10 uM": 2.84}, {"compound": "Cc1cc(Cl)ccc1N(CC(=O)NCc1ccccc1)S(C)(=O)=O", "% Inhibition @ 10 uM": -10.5}, {"compound": "COc1cc2c3c(c1OC)C1(C=CC(=O)C=C1)CC3N(C(=O)CCC(=O)O)CC2", "note": "(stereo not shown)", "% Inhibition @ 10 uM": -1.33}, {"compound": "Cc1ccc(/C=C(\\C#N)c2nc(-c3ccc(Br)cc3)cs2)cc1", "% Inhibition @ 10 uM": -0.268}, {"compound": "CCCc1nc(N)c(C#N)c(-c2ccc(Cl)cc2)c1CC", "% Inhibition @ 10 uM": 4.38}, {"compound": "COc1ccc(C)cc1NCc1ccc(SC)cc1", "% Inhibition @ 10 uM": 2.36}, {"compound": "CC1=C(C(N)=O)C(c2ccc(OCc3ccccc3)cc2)n2ncnc2N1", "note": "(stereo not shown)", "% Inhibition @ 10 uM": -7.35}, {"compound": "COc1cc(C2CC(C(F)(F)F)n3ncc(C(=O)N4CCCCC4)c3N2)cc(OC)c1OC", "note": "(stereo not shown)", "% Inhibition @ 10 uM": 0.147}, {"compound": "CC(C)(C)NC(=O)c1ccccc1-c1ccccc1C(=O)O", "% Inhibition @ 10 uM": 4.63}, {"compound": "Cc1cc(C(=O)Nc2cccnc2Cl)no1", "% Inhibition @ 10 uM": -1.84}, {"compound": "O=C(NCc1nnc(S)n1-c1cccc(Cl)c1)c1ccc(S(=O)(=O)N2CCOCC2)cc1", "% Inhibition @ 10 uM": 22.9}, {"compound": "COc1cc(CNCCO)cc(Cl)c1OCc1ccccc1F", "% Inhibition @ 10 uM": -6.27}, {"compound": "COc1ccc(-c2nonc2NC(=O)CC(C)C)cc1", "% Inhibition @ 10 uM": -6.56}, {"compound": "COc1cccc(C(=O)N(Cc2ccc(N(C)C)cc2)C2CCS(=O)(=O)C2)c1", "note": "(stereo not shown)", "% Inhibition @ 10 uM": 2.92}, {"compound": "O=C(Nc1cccc([N+](=O)[O-])c1)c1cccc(S(=O)(=O)Nc2ccc(Br)cc2)c1", "% Inhibition @ 10 uM": 1.64}, {"compound": "COc1cccc(S(=O)(=O)Nc2ccc(C(=O)N3CCC(Cc4ccccc4)CC3)cc2)c1", "% Inhibition @ 10 uM": -7.16}, {"compound": "CNC(=O)Cn1nc(C)n2c(cc3c(OC)cccc32)c1=O", "% Inhibition @ 10 uM": -7.22}, {"compound": "O=C(c1ccc(CSc2ccc(Oc3ccccc3)cc2)cc1)N1CCOCC1", "% Inhibition @ 10 uM": 1.42}, {"compound": "Cc1cc(N2CCN(c3ccccc3)CC2)nc(-c2ccccc2O)n1", "% Inhibition @ 10 uM": -7.19}, {"compound": "CCN(CC)CC#CC(C)(C)OC(C)=O", "% Inhibition @ 10 uM": -6.18}, {"compound": "COc1ccc2cc(C(=O)O)n(CC(=O)c3ccccc3)c2c1", "% Inhibition @ 10 uM": -5.37}, {"compound": "Cc1ccc(-n2nc(C(=O)O)c(C)c(C#N)c2=O)cc1Cl", "% Inhibition @ 10 uM": 4.28}, {"compound": "COc1ccc(C(=O)Nc2ccc(Cl)cc2C)cc1", "% Inhibition @ 10 uM": 0.273}, {"compound": "COc1cccc(N2C(=O)C3CC=CCC3C2=O)c1", "note": "(stereo not shown)", "% Inhibition @ 10 uM": -8.07}, {"compound": "c1ccc(CNC2CCCc3ccccc32)nc1", "note": "(stereo not shown)", "% Inhibition @ 10 uM": 3.82}, {"compound": "CCOc1ccc(C(=O)NC(C)C23CC4CC(CC(C4)C2)C3)cc1", "note": "(stereo not shown)", "% Inhibition @ 10 uM": 0.316}, {"compound": "Cc1[nH]c2ccccc2c1CCNS(=O)(=O)c1ccc2oc(=O)ccc2c1", "% Inhibition @ 10 uM": -5.53}]}]}
